Reference: PubChem BioAssay AID488896 (Broad Institute, 2010)
The whole screen tested about 320,000 compounds, of which about 3,100 (0.97%) were called active. Inconclusive means that the source gave no clear call. Such entries were picked first, then a sample of the others.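 How the source made its calls: active means mean replicate inhibition of at least 70% and a set share of replicates each scoring 70 or more; inconclusive means meets just one of the two criteria; inactive means fails both criteria.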

molecular target: Scavenger receptor class B member 1 (Mus musculus) (UniProt Q61009); assay: inhibitors of SR-BI mediated HDL lipid uptake, primary screen, ldlA[mSR-BI] cells, fluorescence, single point (AID 488896); conditions: ldlA[mSR-BI] CHO cells, DiI-HDL uptake fluorescence, 3 h; at 12.5 µM; stronger effect = higher value;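 further: 0% = median of neutral control wells and 100% = median of positive control wells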
UniProt Q61009, sequence (Q61009 whole entry, looked up): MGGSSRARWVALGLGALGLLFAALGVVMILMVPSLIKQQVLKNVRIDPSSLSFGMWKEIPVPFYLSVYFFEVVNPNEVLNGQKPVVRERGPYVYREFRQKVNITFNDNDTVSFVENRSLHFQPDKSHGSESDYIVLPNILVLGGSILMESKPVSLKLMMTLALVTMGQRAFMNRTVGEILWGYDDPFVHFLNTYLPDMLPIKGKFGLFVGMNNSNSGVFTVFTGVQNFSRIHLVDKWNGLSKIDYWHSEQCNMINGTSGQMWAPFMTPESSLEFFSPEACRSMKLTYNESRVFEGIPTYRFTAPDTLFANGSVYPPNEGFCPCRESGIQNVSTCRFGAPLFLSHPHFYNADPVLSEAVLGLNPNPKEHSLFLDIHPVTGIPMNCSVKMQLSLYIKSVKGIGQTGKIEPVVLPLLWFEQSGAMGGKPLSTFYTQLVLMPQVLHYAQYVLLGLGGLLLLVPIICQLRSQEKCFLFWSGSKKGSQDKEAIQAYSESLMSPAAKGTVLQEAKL

| Compound | inhibition |
| --- | --- |
| CCc1ccccc1S(=O)(=O)Cc1ccc(C(=O)N2CCN(c3ccccn3)CC2)o1 | inactive: 40.1% |
| CCN(CC)c1ccc(-n2cc3c(=O)n(C)c(=O)n(C)c3c2)cc1 | active: 73.5% |
| O=C(N/N=C/c1cccc([N+](=O)[O-])c1)c1cc(-c2ccccc2)nc2ccccc12 | active: 80.2% |
| Cc1cc(/C=C(\C#N)C(=O)O)c(C)n1-c1ccc(Br)cc1 | inactive: -8.73% |
| Cc1c(C(=O)NCc2ccccn2)oc2ccc(Br)cc12 | inconclusive: 70.9% |
| CCOC(=O)c1[nH]c2c(c1C)C(=O)CC(c1ccc(F)cc1)C2 (centres undefined) | inconclusive: 71.6% |
| Cc1cc(-c2ccccc2)nc(N/N=C/c2ccc(O)cc2O)n1 | inconclusive: 75.2% |
| CCCCn1c(SCC(=O)c2ccc3c(c2)OCCO3)nnc1-c1ccoc1C | inactive: 29.5% |
| CCOC(=O)/C(=N\Nc1ccc(Br)cc1)N1CCN(c2ccccc2OC)CC1 | inconclusive: 76.5% |
| COc1ccccc1CNC(=O)CNC(=O)c1cn(-c2ccccc2OC)c(=O)c2ccccc12 | inconclusive: 77.9% |
| CCOC(=O)Cc1csc(NC(=O)COc2ccc(N(C)S(=O)(=O)c3ccc(C)cc3)cc2)n1 | inconclusive: 72.2% |
| COc1ccc(C(=O)Nc2cccc(/C(C)=N\NC(=O)c3ccoc3C)c2)cc1OC | inconclusive: 73.6% |
| O=c1oc2c3c4c(cc2s1)CCCN4CCC3 | inactive: -3.05% |
| COc1ccc(CCNC(=O)CCC(=O)N2CC(C)Oc3ccc(Cl)cc32)cc1OC (centres undefined) | inconclusive: 71.2% |
| Cc1cccc(NC(=O)CC2Nc3cccc4cccc(c34)NC2=O)c1 (centres undefined) | inconclusive: 71.2% |
| COc1ccc2c(c1)c1ccc3c(c1n2C)C(=O)C=CC3=O | inconclusive: 75% |
| CCOc1cc(/C=N/NC(=O)c2ccc(-c3csc(Nc4ccc(C)cc4)n3)cc2)ccc1OCC(=O)O | inconclusive: 71.4% |
| COc1cc(CN2CCN(C(=O)c3ccc(-c4ccccc4)cc3)CC2)cc(OC)c1OC | active: 83.7% |
| COc1ccccc1NS(=O)(=O)c1ccc(N/N=C/C=C/c2ccccc2[N+](=O)[O-])c([N+](=O)[O-])c1 | inconclusive: 71% |
| COc1ccccc1CNC(=O)C1CCN(C(=O)c2sccc2-n2cccc2)CC1 | inconclusive: 70.9% |
| COc1ccc(CCNc2nc(-c3cccc(NC(C)=O)c3)cs2)cc1OC | active: 75.5% |
| C/C(=N\NC(N)=S)c1ccccc1 | active: 86.4% |
| CC(=O)c1ccc(NC(=S)NCc2ccc(Cl)cc2Cl)cc1 | inactive: 1.38% |
| COc1ccc(NS(=O)(=O)NC(=O)c2c[nH]c3ccccc23)cc1 | inactive: -31.8% |
